According to PubChem BioAssay AID1508624 (National Center for Advancing Translational Sciences (NCATS), 2021):
Screen size: about 48,000 compounds; about 120 (0.25%) were called active. Not shown: some 4% with an inconclusive outcome. Calls follow the shape of the dose curve; as a rule, active = well fitted activation curve with a large enough effect; inconclusive = small, poorly fitted or top-dose-only effect, or another doubt; inactive = no such curve, though single readings can be large or run the other way. This is one part of the list.

Test: Primary qHTS for Identification of Small Molecule Activators of Huntingtin-Antisense Promoter Activity; also: nearly all actives have a fitted effect of over 55% in size
Conditions: HEK293 HTT-AS promoter firefly luciferase reporter (activity 0% = vehicle and -100% = no light), 24 h; series mostly up to 57.5 µM; activity change, positive = activation: at the top concentration
In short: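 Luminescence was read after Dual-Glo reagent and a 10 min room-temperature incubation. Values were normalized to vehicle (0% activity) and zero RLU (-100% activity). Reporter HEK293 cells had been exposed to compounds (up to 57.5 uM final) for 24 h.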

Activity change, positive = activation, inactive:
Cc1cc(C)cc(NC(=O)c2sc3nc(-c4cc5ccccc5oc4=O)[nH]c(=O)c3c2C)c1 -2.58%
COC(=O)c1c(C)sc(-c2c(-c3cccc(Cl)c3)[nH]c3c2c(=O)[nH]c(=O)n3C)c1O -15.2%
O=C(NCc1ccccc1)c1csc(Nc2ccncn2)n1 -19.8%
Cc1cccc(N(C)C(=S)Oc2ccc3c(c2)CCC3)c1 -20.9%
COc1ccc(CCNC(=O)CCc2c(C)nc3c(c(C)nn3-c3ccccc3)c2C)c(OC)c1 -1.46%
Cc1ccc(OCc2ccc(-c3nc(C#N)c(N4CCC(C)CC4)o3)o2)cc1 -14.4%
COc1ccc(-c2noc(N3CCN(c4cccc(C)c4C)CC3)n2)cc1OC -33.1%
CCc1cccc(C)c1NC(=O)C(C)Sc1nc2c(c(=O)[nH]1)CCCC2 (stereo unspecified) -35.1%
COc1ccccc1C(=O)Nc1nnc(SCc2cc(=O)n3ccc(C)cc3n2)s1 19.6%
CCCNC(=O)CCC(=O)N1Cc2ccccc2Oc2ncccc21 -2.18%
COc1ccc(C(=O)CN2C(=O)N(c3cc(C)ccc3C)S(=O)(=O)c3ccccc32)cc1 -23.2%
CCc1ccccc1NC(=O)C1CCN(C2=NS(=O)(=O)C(c3ccc(C)c(C)c3)=C2C)CC1 -32.4%
C=CC(=O)Nc1cc2c(Nc3ccc(F)c(Cl)c3)ncnc2cc1OCCCN1CCOCC1 -40.8%
CC(C)(C)NCC(O)COc1cccc2c1CCC(=O)N2 (stereo unspecified) 3.45%
CCOC(=O)C1CCN(C(=O)CCS(=O)(=O)c2cc3c(cc2Cl)NC(=O)CO3)CC1 -10.1%
Cc1ccc(CSc2ncc(Cl)c(C(=O)NCCc3ccc(S(N)(=O)=O)cc3)n2)cc1 -13.6%
Cc1ccc(N(CC(=O)NCc2ccc(Cl)cc2)S(=O)(=O)N(C)C)cc1 19.9%
COC(=O)[C@H](CCCN=C(N)N)NS(=O)(=O)c1ccc(C)cc1 -2.25%
COc1ccc(NC(=O)CSc2nc(-c3ccc(OC)cc3)[nH]c2-c2ccc(OC)cc2)cc1 -21.4%
COc1ccc(-c2cc(OC(=O)c3ccc(Cl)cc3)c3c(C)oc(C)c3c(=O)c2)cc1 -10.5%
Cc1ccc(C(=O)Nc2cccc(-c3nc4cccnc4s3)c2C)cc1 -19.4%
COC(=O)c1ccc(Nc2nnc(-c3ccc(C)c(S(=O)(=O)N4CCN(C)CC4)c3)c3ccccc23)cc1 5.39%
Cc1cccc(CN2C(=O)c3ccccc3S(=O)(=O)c3ccc(C(=O)NCCC4=CCCCC4)cc32)c1 -15%
CCC1CCCCN1S(=O)(=O)c1ccc(C(=O)Nc2sc3c(c2C(=O)NC)CCC3)cc1 (stereo unspecified) -34.9%
COc1ccc(OCC(=O)OCc2cc(=O)n3cc(C)sc3n2)cc1 -9.39%
COc1ccc(NC(=O)c2cc3nc(-c4ccc(C)c(C)c4)cc(C(F)(F)F)n3n2)cc1 -6.43%
COc1ccccc1CNC(=O)c1oc2ccc(S(=O)(=O)N3CCCCC3)cc2c1C -21%
CCc1ccccc1NC(=O)c1ccc2c(O)c(S(=O)(=O)c3ccccc3)c(=O)[nH]c2c1 -6.91%
COc1ccc(-c2cc(C(C)=O)c(C)n2CCC(=O)NCc2ccccc2OC)cc1 -21.7%
Cc1nn(-c2ccccc2)c(OC(=O)C(C)C)c1Sc1ccccc1 -8%
CCc1ccccc1N(C)C(=O)Cc1c(C(=O)O)c(C)cn1C -10.7%
Brc1cccc(CNCCSc2nnnn2-c2ccccc2)c1 10.4%
Cc1cc(C)c(NC(=O)C(C)n2nc(-c3ccc(C)c(C)c3)ccc2=O)c(C)c1 (stereo unspecified) -12.4%
Cc1cc(C)cc(OCC(=O)NCCc2nc3ccccc3[nH]2)c1 -21.7%
Cc1ccc(NC(=O)Cc2ccc(-n3c(C)nc4cccnc43)cc2)cc1C -35%
CCOC(=O)c1cc(-c2ccccc2)n(CCCC(=O)Nc2ccc(C(C)C)cc2)c1C -42.4%
COC(=O)c1cccc(-n2c(CCC(=O)O)ccc2-c2ccc(OC)cc2)c1 -13.6%
Cc1ccc(Cl)cc1NC(=O)C(C)n1nnc2sc(-c3ccccc3)cc2c1=O (stereo unspecified) 1.73%
COc1cccc(CNC(=O)CCc2cn(Cc3ccccc3Cl)c3ccccc23)c1 -25.1%
COc1ccc(Cn2c(SCc3ccc(C(=O)NC4CCCC4)cc3)nc3ccncc32)cc1 -27.7%
CNC(=O)c1cc(Oc2ccc(NC(=O)Nc3ccc(Cl)c(C(F)(F)F)c3)c(F)c2)ccn1 -32.1%
CCOC(=O)c1c(C)oc2ncnc(N3CCN(c4ccccc4OC)CC3)c12 -31.3%
O=C(CC1C(=O)N(c2ccccc2)C(=O)N1CCC1=CCCCC1)Nc1ccc(F)cc1 (stereo unspecified) -35.3%
Cc1ccccc1NC(=O)CSc1nc(-c2ccccc2C)nc2cc(=O)[nH]n12 -12%
COc1ccccc1N(CC(=O)NCCSCc1ccccc1)S(=O)(=O)c1ccc(C)cc1 -42.4%
COCCNC(=O)Cn1nc(N2CCN(c3ccccc3OC)CC2)ccc1=O -3.53%
CCOc1ccc(NC(=O)N2CCN(S(=O)(=O)c3ccc4c(ccn4C)c3)CC2)cc1 -17.1%
CCc1ccc(C(=O)c2cn(CC(=O)Nc3ccc(F)cc3)c3ccc(OC)cc3c2=O)cc1 -11.4%
CC(=O)N1CCN(c2csc3ccc(F)cc3c2=O)CC1 8.32%
O=C1CN(C(=O)Cc2ccc(F)cc2)C(c2ccccc2)c2cc(Cl)ccc2N1 (stereo unspecified) -20.8%
COc1ccc(NC(=O)Cn2c(=O)n(C(C)C)c(=O)c3oc4ccccc4c32)cc1Cl -19.2%
COc1ccc(N2CCN(S(=O)(=O)CCNC(=O)Cc3ccc(Cl)cc3)CC2)cc1 8.57%
CCn1cc(S(=O)(=O)c2cc(C)cc(C)c2)c(=O)c2cc(F)c(N3CCCC3)cc21 -2.44%
CCOc1ccc(CCNC(=O)c2nnc(Cc3cc(OC)c(OC)c(OC)c3)o2)cc1OCC 1.71%
CN(C)c1ccc(C(CNC(=O)c2ccc(C(C)(C)C)cc2)N2CCOCC2)cc1 (stereo unspecified) -17.6%
COc1cc(OC)cc(C(=O)Nc2ccccc2-c2nc3ccccc3s2)c1 0.297%
COc1ccc2[nH]c(C)c(CCNS(=O)(=O)c3cc(F)ccc3OC)c2c1 -9.11%
COc1ccc(CCNC(=O)C2(c3cccs3)CCOCC2)cc1OC -8.58%
COc1ccc(-c2nc3c4ccccc4n(CC(=O)Nc4cc(F)ccc4F)c(=O)n3n2)cc1 21.3%
CCOc1ccc(OC(=O)c2cn(-c3ccc(C)cc3)c(=O)c3ccccc23)cc1 -16.7%
COc1cc(-c2ccno2)ccc1S(=O)(=O)N1CCN(c2ccc(C(C)=O)cc2)CC1 -33.7%
